Measurements reported in the supplement of paper PMC9334596.
“And” between values parts separate entries of the source, which are not always exact repeats. Identical values can stand only once. Whole data set: some 5,300 compounds, median “PER2::LUC luminescence relative to vehicle control” near 0.96, cut for the highest 2% near 1.3. The list shows a part of the results.

Test system: mPer2Luc MEF
Assay: PER2::LUC luminescence relative to vehicle control (fold of vehicle); higher = higher PER2::LUC reporter signal
Conditions: 10 µM
Summary of the method: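 The reported values are PER2::LUC luminescence as fold of vehicle control in mouse embryonic fibroblasts carrying the mPer2Luc reporter. Cells were seeded at ~3000 per well in 384-well plates in DMEM with 10% FBS at 37 °C and 5% CO2, and compounds were added at 10 μM 48 h later. ONE-Glo luminescence was read 24 h and 30 h after treatment.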

SMILES	PER2::LUC luminescence (time after treatment 24 h)	PER2::LUC luminescence (time after treatment 30 h)
CS(=O)(=O)c1ccc(C(=O)Nc2ccc(Cl)c(-c3ccccn3)c2)c(Cl)c1	1.17	1.14
CNC(=O)c1cc(Oc2ccc(NC(=O)c3cccc(C(F)(F)F)c3)cc2)ccn1	1.15	1.14
Cc1ccc2c(c1)C(=O)C1(O)CCN(c3ccccc3)C1=N2 (single isomer, unassigned; (-))	0.694	0.733
O=C(OCCN1CCOCC1)C1(c2ccccc2)CCCCC1	0.994	0.9
COc1ccc(CC(C)NCC(O)c2ccc(O)c(NC=O)c2)cc1 (stereo not given)	1.02 and 1.05	1.09 and 1.02 and 1
NC(=O)N1CCC(CC(=O)N2CCC([C@H]3c4ncc(Br)cc4CCc4cc(Cl)cc(Br)c43)CC2)CC1	1.05	1.25
COc1cc(OC)c2c(=O)c(OC)c(-c3ccccc3)oc2c1	0.568	0.907
CCN(CC)CCNC(=O)c1ccc(NS(C)(=O)=O)cc1	0.989	1.06
O=C1N[C@H](C(=O)O)CS1	0.846	0.838
C[C@H](N[C@@H](CCc1ccccc1)C(=O)O)C(=O)N1CCC[C@H]1C(=O)O	1.02 and 0.824	0.892 and 1.05
COc1cc2nc(N3CCN(C(=O)OCc4ccccc4)[C@H](C(=O)NC(C)(C)C)C3)nc(N)c2cc1OC	0.874	0.957
CN(C)[C@@H]1C(O)=C(C(N)=O)C(=O)[C@@]2(O)C(O)=C3C(=O)c4c(O)cccc4[C@@](C)(O)[C@H]3C[C@@H]12	1.16	1.03
O=C(Nc1cccnn1)N1CCC(=Cc2cccc(Oc3ccc(C(F)(F)F)cn3)c2)CC1	0.929	0.809
O=C(O)C1CCCNC1 (racemic)	0.948	0.967
O=C1/C(=C/c2cccs2)CC/C1=C\c1cccs1	1.07	1.01
C[C@]12CCC(=O)C=C1CC[C@@H]1[C@@H]2C(=O)C[C@@]2(C)[C@H]1CC[C@]2(O)C(=O)CO	0.998	0.948
COCCCC/C(=N\OCCN)c1ccc(C(F)(F)F)cc1	0.826 and 0.832	0.815 and 0.748
CCCCc1ccc(NC(C)=O)c(C)c1	1.1	1.05
CC(=O)[C@@]12O[C@](C)(c3ccccc3)O[C@@H]1C[C@H]1[C@@H]3CCC4=CC(=O)CC[C@]4(C)[C@H]3CC[C@@]12C	0.612	1.19
NC(=O)N[C@@H](CCC(=O)O)C(=O)O	1.04	0.955 and 1.11
O=C(O)CCCc1ccccc1	1.03 and 0.98 and 0.985	0.975 and 1 and 0.888
Cc1cnc(NC(=O)C2=C(O)c3ccccc3S(=O)(=O)N2C)s1	1.06 and 1.19	1.1 and 0.957

SMILES	PER2::LUC luminescence (time after treatment 24 h)	PER2::LUC luminescence (time after treatment 30 h)
CC(C)NCC(O)COc1ccc(CC(N)=O)cc1 (racemic)	0.92	1.01
N=C(N)SCCc1c[nH]cn1	1.01	1.13
CC1(C)O[C@@H]2C[C@H]3[C@@H]4CCC5=CC(=O)C=C[C@]5(C)[C@@]4(F)[C@@H](O)C[C@]3(C)[C@]2(C(=O)CO)O1	0.583	1.35
NC1=NCCN1CC(=O)O	1.08	1.08
c1ccc(CN2CCC3(CCc4ccccc43)CC2)cc1	1.03	0.943
OC1(c2ccc(Cl)c(C(F)(F)F)c2)CCN(CCCC(c2ccc(F)cc2)c2ccc(F)cc2)CC1	0.334	0.313
C[C@@H]1C[C@H]2[C@@H]3CCC4=CC(=O)C=C[C@]4(C)[C@@]3(F)[C@@H](O)C[C@]2(C)[C@@]1(O)C(=O)CO	0.654	1.12
O=C(O)COC(=O)Cc1ccccc1Nc1c(Cl)cccc1Cl	1.15	1.03
CC(C)Oc1ccc(C(=O)N[C@H](CNC(=O)CN(C)C)Cc2ccc(-c3cn4cccc([C@H](C)O)c4n3)cc2)cc1Cl	0.763	0.841
CN(C)c1ccc(/C=C2/C(=O)Nc3ccccc32)cc1	1.06	1.12
Cc1nnc(NS(=O)(=O)c2ccc(N)cc2)s1	0.999	1.02
COc1ccc(/C=C/C(=O)c2c(O)cc(OC)cc2OC)cc1	1.08	1.04
C#CCCCCCCCCCCCc1ccco1	0.986	1.01
FC(F)c1nc2ccccc2n1-c1nc(N2CCOCC2)nc(N2CCOCC2)n1	0.473	0.417
O=C1C2CC3CC1CC(O)(C3)C2	1.1 and 1.07	1.01 and 0.937
CCN1CCN(c2cc3c(cc2F)c(=O)c(C(=O)O)cn3C2CC2)CC1	0.718	1
CCN1CCC[C@H]1CNC(=O)c1c(OC)ccc(Br)c1OC	1.03	0.993
Nc1nc2[nH]cc(CCc3ccc(C(=O)O)cc3)c2c(=O)[nH]1	0.282	0.41
COc1ccc2c(OC)c3ccoc3nc2c1OC	1	1.01
C1CCN2C[C@@H]3C[C@@H](CN4CCCC[C@@H]34)[C@H]2C1	0.994 and 0.952 and 0.532	0.989 and 0.946 and 1.01
CC(C)[C@](O)(c1ccc2cc(OC(F)F)c(OC(F)F)cc2c1)c1c[nH]nn1	1.15	1.04
COc1ccccc1S(=O)(=O)Nc1ccc2c(c1)CN(C)C(=O)N2	0.315	0.329

SMILES	PER2::LUC luminescence (time after treatment 24 h)	PER2::LUC luminescence (time after treatment 30 h)
C[C@H]1CN(C[C@H](Cc2ccccc2)C(=O)NCC(=O)O)CC[C@@]1(C)c1cccc(O)c1	0.951	1.06
CCCCCCCC/C=C/CCCCCCCCOP(=O)([O-])OCC[N+](C)(C)C	1.02	0.935
CC1CC(OC(=O)C(O)c2ccccc2)CC(C)(C)N1C (stereo not given)	0.997	1.05
CN(C)CCOc1ccc(/C(=C(/CCCl)c2ccccc2)c2ccccc2)cc1	1.1 and 0.831 and 0.774	1 and 0.954 and 0.824
CC(C)(Cc1ccc2ccccc2c1)NC[C@@H](O)COc1cccc(Cl)c1C#N	0.478	0.582
CCN1CCN(C(=O)N[C@@H](C(=O)N[C@@H]2C(=O)N3C(C(=O)O)=C(CSc4nnnn4C)CS[C@H]23)c2ccc(O)cc2)C(=O)C1=O	0.973 and 0.949	0.921 and 0.9
Cc1ccc(Cl)c(Nc2ccccc2C(=O)O)c1Cl	0.952 and 1.23	0.856 and 0.956
C=C1/C(=C\C=C2/CCC[C@]3(C)[C@@H]([C@H](C)/C=C/[C@@H](O)C4CC4)CC[C@@H]23)C[C@@H](O)C[C@@H]1O	1.07 and 0.929	1.01 and 0.919
O=C(NCCO[N+](=O)[O-])c1cccnc1	0.981	1.03
Cc1ncc(NC(=O)c2ccc(CN3CCN(C)CC3)c(C(F)(F)F)c2)cc1Nc1nccc(-c2cccnc2)n1	0.666	0.742
CC1=Nc2ccc(Cl)cc2S(=O)(=O)N1	0.859	0.958
Cc1nc(C#Cc2ccnc(Cl)c2)c(C)n1-c1ccc(F)cc1	0.836	0.906
CO[C@@]12[C@H](COC(N)=O)C3=C(C(=O)C(C)=C(N)C3=O)N1C[C@@H]1N[C@@H]12	1.12 and 1.13	0.794 and 0.757
CC(C(=O)O)c1ccc(N2Cc3ccccc3C2=O)cc1 (stereo not given)	1.02	1.34
Cc1cc(/N=N/c2ccc(S(=O)(=O)Nc3ccccn3)cc2)c(N)cc1O	0.688	0.741
Oc1ccc(OCc2ccccc2)cc1	0.881	0.949
COc1cccc(/C=N/N(C(=O)C(F)(F)F)c2ccc(C)cc2C)c1	0.818	0.768
COC(=O)CNC(=O)C(=O)OC	0.922	0.99
CC(C)=CCC[C@]1(C)[C@@H](CC=C(C)C)C[C@@]2(CC=C(C)C)C(=O)[C@]1(C(=O)C(C)C)C(=O)C(CC=C(C)C)=C2O	1.03	0.916
CC(C)C1=CC2=CC[C@@H]3[C@](C)(CCC[C@@]3(C)C(=O)O)[C@H]2CC1	1.34	1.15
CNC(=O)[C@H](Cc1c[nH]c2ccccc12)NC(=O)[C@@H](CC(=O)NO)CC(C)C	1.15	1.04
CC1=C([C@@H]2C=C3[C@@H](CC[C@]4(C)[C@@H]([C@H](C)CCCC(C)(C)O)CC[C@@H]34)n3c(=O)n(-c4ccccc4)c(=O)n32)C[C@@H](O)C[C@@H]1O	0.906	0.964

SMILES	PER2::LUC luminescence (time after treatment 24 h)	PER2::LUC luminescence (time after treatment 30 h)
CCCn1c(=O)c2c(ncn2C)n(CCC)c1=O	0.97	0.864
C[C@H]1C[C@H]2[C@@H]3CCC4=CC(=O)C=C[C@]4(C)[C@@]3(F)[C@@H](O)C[C@]2(C)[C@@]1(O)C(=O)CO	0.69	1.11
O=C(O[C@@H]1Cc2c(O)cc(O)cc2O[C@@H]1c1cc(O)c(=O)c2c(O)c(O)cc([C@H]3Oc4cc(O)cc(O)c4C[C@H]3O)c2c1)c1cc(O)c(O)c(O)c1	0.88	0.825
COC(=O)CC[C@@H](C)[C@H]1CC[C@H]2[C@@H]3CC[C@@H]4C[C@H](O)CC[C@]4(C)[C@H]3C[C@H](O)[C@]12C	0.887	1.02
O=C(O)/C=C/c1ccc(Cn2ccnc2)cc1	0.915	0.724
CN1CCN(c2nc3cc(C(F)(F)F)ccc3n3cccc23)CC1	0.664 and 0.625	0.821 and 0.773
CNC(=O)c1cc(COc2nnc(Nc3ccc(Cl)cc3)c3ccoc23)ccn1	0.902	0.844
O=C[C@H](O)[C@@H](O)[C@H](O)CO (racemic)	0.94	1.06
CC(=O)O[C@H](CC(=O)O)C[N+](C)(C)C	1.03	0.967
CCCc1nc(C)c2c(=O)nc(-c3cc(S(=O)(=O)N4CCN(CC)CC4)ccc3OCC)[nH]n12	0.891 and 0.829	0.806 and 0.8
CN1CCN(c2cc3c(nn2)Oc2ccccc2N3C)CC1	1.07	1.28
CCn1nc(C(=O)O)c(=O)c2cc3c(cc21)OCO3	1.15	0.751
O=C(O)C(S)C(S)C(=O)O (stereo not given)	0.982	0.899
COc1cc2c(cc1OC)C(c1ccc(N)cc1)=NNC(=O)C2	0.992	0.99
Cc1cc(/C=C/c2ccc3cc(N(C)C)ccc3[n+]2C)c(C)n1-c1ccccc1	0.18	0.144
O=c1c(-c2ccc(O)cc2)coc2c([C@@H]3O[C@H](CO)[C@@H](O)[C@H](O)[C@H]3O)c(O)ccc12	1.02	0.928
CC(C)(Oc1ccc(C(=O)c2ccc(Cl)cc2)cc1)C(=O)O	0.939	0.863
CCCCNc1ccc(C(=O)OCCOCCOCCOCCOCCOCCOCCOCCOCCOC)cc1	1.07	0.94
Cc1cc([C@@H](C)Nc2ccccc2C(=O)O)c2nc(N3CCOCC3)cc(=O)n2c1	0.852	0.769
